The target of this test is T1, HER2 (ErbB2) on the surface of human tumour cell lines (human, UniProt P04626).
T1 construct: Endogenous HER2 of the cell lines; also called cell surface Her2
The experiment in a line: cell staining at 200 nM, cells dissociated with trypsin or CellStripper.

B1: HER085 (Fc fusion)
chain: [sequence of about 100 residues omitted]GGSGSDYWGQGTMVTVSSGGGGSGGGGSGGGGSALNFMLTQPHSVSGSPGKTVTISCTRSSGYIDSKYVQWYQQRPGSAPTTVIYEDNRRPSGVPDRFSGSIDSSSNSASLTISGLETEDEADYYCQSYDDTNVVFGGGTKVTVLGDVR[sequence of human IgG1 Fc with changes omitted]
notes: SMIP; also called HER085 SMIP
In the case of B1, the binding result is reported as “binds”.

(Values after patent publication WO2009055074A2 (dated 2009).)
